Laboratory results as given in the supplement of paper PMC9446081.
Out of some 39,000 compounds screened, about 220 (0.56%) showed activity. Some of the results follow.

system: Escherichia coli K-12 BW25113; experiment: relative growth (OD600 normalised to plate interquartile mean) (fraction); higher = less growth inhibition, active = 0.2 or less; details: 50 µM; LB; incubation time: overnight (16-24 h)
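Further: static incubation at 37 °C against the wild-type strain, values averaged over two biological replicates.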

Row | SMILES | relative growth
1 | N#CCOc1cccc2ccccc12 | inactive: 0.977
2 | Cc1ccc(C(=O)N2CCN(c3ccc(NC(=O)COc4c(C)cc(C)cc4Br)cc3)CC2)cc1 | inactive: 1.04
3 | C[C@H](CO)N1C[C@H](C)[C@@H](CN(C)Cc2ccc(C(F)(F)F)cc2)Oc2ccc(NS(C)(=O)=O)cc2C1=O | inactive: 0.958
4 | C[C@@H]1CCCCO[C@H](CN(C)C(=O)NC2CCCCC2)[C@@H](C)CN([C@H](C)CO)C(=O)c2cc(NS(=O)(=O)c3ccc(F)cc3)ccc2O1 | inactive: 0.956
5 | C[C@H]1CN([C@@H](C)CO)C(=O)c2cc(NC(=O)Nc3ccc(F)cc3)ccc2O[C@H]1CN(C)S(=O)(=O)c1cn(C)cn1 | inactive: 0.997
6 | C[C@@H]1CCCCO[C@H](CN(C)CC2CCCCC2)[C@H](C)CN([C@H](C)CO)C(=O)c2cc(NC(=O)C3CCCCC3)ccc2O1 | inactive: 0.976
7 | C[C@@H]1CCCCO[C@@H](CN(C)C)[C@H](C)CN([C@@H](C)CO)C(=O)c2cc(NC(=O)Nc3ccc(C(F)(F)F)cc3)ccc2O1 | inactive: 0.975
8 | Cc1cc(C(=O)Nc2cccc3c2O[C@@H](CN(C)S(C)(=O)=O)[C@H](C)CN([C@H](C)CO)C3=O)n(C)n1 | inactive: 0.997
9 | COc1cccc(S(=O)(=O)Nc2ccc3c(c2)[C@H]2C[C@H](CC(=O)N4CCCCC4)O[C@@H](CO)[C@H]2O3)c1 | inactive: 1.01
10 | C[C@@]1(O)N(CC(=O)O)C(=O)OC12CCCCC2 | inactive: 0.992
11 | N[C@@H](CSS(=O)(=O)O)C(=O)O | inactive: 1.01
12 | Cc1noc(C)c1S(=O)(=O)Nc1ccc2c(c1)CC(=O)N([C@H](C)CO)C[C@@H](C)[C@@H](CN(C)C(=O)Nc1ccccc1)O2 | inactive: 1
13 | CC[C@@H](N)c1ccc(C)c(C)c1 | inactive: 1.02
14 | COCC#Cc1ccc2c(c1)O[C@@H](CN(C)S(=O)(=O)c1cccc(OC)c1)[C@@H](C)CN([C@@H](C)CO)S2(=O)=O | inactive: 1.04
15 | Cc1ccc(S(=O)(=O)Nc2ccc3c(c2)CC(=O)N([C@H](C)CO)C[C@@H](C)[C@@H](CN(C)S(=O)(=O)c2ccc(F)cc2)O3)cc1 | inactive: 1.02
16 | CC(=O)O.Cc1c(-c2ccc(O)cc2)n(Cc2ccc(OCCN3CCCCCC3)cc2)c2ccc(O)cc12 | inactive: 0.842
17 | CCS(=O)(=O)Nc1ccc2c(c1)C(=O)N(C)[C@H]1CC[C@@H](CC(=O)N[C@H]3CCN(Cc4ccccc4)C3)O[C@@H]1CO2 | inactive: 0.991
18 | C[C@H]1CN([C@@H](C)CO)C(=O)c2cccc(NC(=O)C3CCCCC3)c2O[C@@H]1CN(C)Cc1ccc(Cl)c(Cl)c1 | inactive: 0.973
19 | COc1ccc(S(=O)(=O)N(C)C[C@H]2OCCCC[C@@H](C)Oc3ccc(NC(=O)NC4CCCCC4)cc3C(=O)N([C@@H](C)CO)C[C@@H]2C)cc1 | inactive: 1
20 | Nc1ncnc2c1ncn2CCN1CCOCC1 | inactive: 1.03
21 | C[C@H](CO)N1C[C@H](C)[C@H](CN(C)S(=O)(=O)c2cccs2)Oc2c(NC(=O)c3ccncc3)cccc2C1=O | inactive: 0.976

Row | SMILES | relative growth
22 | Cn1cnc(S(=O)(=O)N2C[C@@H](O)COC[C@H]3O[C@@H](CC(=O)NC4Cc5ccccc5C4)CC[C@@H]32)c1 | inactive: 0.947
23 | C[C@@H]1CN([C@@H](C)CO)C(=O)c2cccc(NC(=O)c3ccc(-c4nccs4)cc3)c2O[C@@H]1CN(C)Cc1ccc(Oc2ccccc2)cc1 | inactive: 0.991
24 | COc1ccc(NC(=O)N(C)C[C@H]2OCCCC[C@H](C)Oc3ccc(NC(=O)C4CCCCC4)cc3C(=O)N([C@H](C)CO)C[C@@H]2C)cc1 | inactive: 0.852
25 | C[C@@H]1CN([C@@H](C)CO)S(=O)(=O)c2ccc(C#Cc3ccncc3)cc2O[C@H]1CN(C)C(=O)C1CCCCC1 | inactive: 0.993
26 | C[C@@H]1CN([C@@H](C)CO)C(=O)Cc2cc(NC(=O)NC3CCCCC3)ccc2O[C@@H]1CN(C)C(=O)Nc1cccc2ccccc12 | inactive: 1.03
27 | Cc1noc(C)c1S(=O)(=O)Nc1ccc2c(c1)C(=O)N([C@H](C)CO)C[C@H](C)[C@@H](CN(C)Cc1ccc(C(=O)O)cc1)O2 | inactive: 1.01
28 | COc1cccc(S(=O)(=O)Nc2ccc3c(c2)[C@@H]2C[C@H](CC(=O)NCc4ccccc4F)O[C@H](CO)[C@@H]2O3)c1 | inactive: 1.01
29 | Cc1noc(C)c1S(=O)(=O)N(C)C[C@@H]1Oc2ccc(NC(=O)C3CC3)cc2CC(=O)N([C@@H](C)CO)C[C@@H]1C | inactive: 1
30 | Oc1ccccc1/N=C/c1ccncc1 | inactive: 0.953
31 | C[C@H](O)C#Cc1ccc2c(c1)O[C@H](CN(C)C(=O)c1ccccc1)[C@H](C)CN([C@H](C)CO)S2(=O)=O | inactive: 0.971
32 | Nc1ccc(S(N)(=O)=O)cc1 | inactive: 1.03
33 | O=C(O)c1cccc(-n2cnnn2)c1 | inactive: 1.02
34 | CCCCCCCCCCCCC(C(=O)O)C(C)C(=O)O (stereo unspecified) | inactive: 1.01
35 | COc1cccc2c1C(=O)c1c(O)c3c(c(O)c1C2=O)C[C@@](O)(C(=O)CO)C[C@@H]3O[C@H]1C[C@H](N)[C@@H](O)[C@H](C)O1 | inactive: 0.835
36 | C[C@@H]1CN([C@@H](C)CO)C(=O)c2cc(NC(=O)Cn3cnnn3)ccc2O[C@H]1CN(C)S(=O)(=O)c1ccc(Cl)cc1 | inactive: 0.97
37 | C[C@H](CO)N1C[C@H](C)[C@@H](CN(C)C(=O)Nc2ccc3c(c2)OCO3)OCCCC[C@H](C)Oc2ccc(NC(=O)Nc3ccccc3)cc2C1=O | inactive: 1.02
38 | Cc1noc(C)c1S(=O)(=O)Nc1ccc2c(c1)C(=O)N([C@H](C)CO)C[C@H](C)[C@H](CN(C)S(=O)(=O)c1cn(C)cn1)O2 | inactive: 0.988
39 | O=C1C(Cl)=C2OC[C@@]2(O)C[C@@H]2CCCN12 | inactive: 0.929
40 | C[C@@H]1CN([C@H](C)CO)C(=O)Cc2cc(NC(=O)CCCCCC(=O)Nc3ccccc3N)ccc2O[C@@H]1CN(C)Cc1ccc(Oc2ccccc2)cc1 | inactive: 1.01
41 | C[C@@H]1CN([C@H](C)CO)C(=O)CCCn2cc(nn2)CO[C@H]1CN(C)S(=O)(=O)c1ccc2ccccc2c1 | inactive: 1
